Experimental data published in patent US9872922B2, “Anti-EFNA4 antibody-drug conjugates” (PFIZER, INC., priority 2013, dated 2018).

Tests used:
mouse EFNA4 = biological target: T1, mouse EFNA4 (Mus musculus, UniProt O08542); assay: Affinity / binding to mouse antigen; conditions: separate studies
T1 construct: His
T1 sequence (O08542 26-175): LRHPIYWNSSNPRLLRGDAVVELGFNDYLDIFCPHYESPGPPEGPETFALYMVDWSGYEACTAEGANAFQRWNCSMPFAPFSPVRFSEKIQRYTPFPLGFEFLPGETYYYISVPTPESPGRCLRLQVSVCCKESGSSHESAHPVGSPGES
Description: As described in International Publication No. WO2012/118547, binding characteristics of E15, E22 and E47 antibodies of the present invention are shown in Table 7.
(§1) The binding constants of huE22 for human and cynomolgus monkey EFNA4 proteins were determined by surface plasmon resonance (SPR) using BIAcore 2000 (GE Healthcare) using recombinant EFNA4 extracellular domain that was fused to a histidine tag to facilitate purification. The results indicated high affinity of huE22 for both human and cynomolgus monkey EFNA4, see Table 12. The cynomolgus monkey EFNA4 protein sequence is highly homologous to human EFNA4 protein sequence, with 98% identity overall and 98% identity in the extracellular domain. […] The lack of huE22 binding to rat or mouse EFNA4 is likely explained by a non-conserved residue in the rat and mouse EFNA4 sequences within the defined huE22 epitope.

human EFNA4 = biological target: T2, human EFNA4 (Homo sapiens, UniProt P52798); assay: SPR (BIAcore 2000) binding constants, human EFNA4; conditions: Human antigen
T2 construct: using recombinant EFNA4 extracellular domain that was fused to a histidine tag to facilitate purification; histidine tag
T2 sequence (P52798 26-170 limits assumed): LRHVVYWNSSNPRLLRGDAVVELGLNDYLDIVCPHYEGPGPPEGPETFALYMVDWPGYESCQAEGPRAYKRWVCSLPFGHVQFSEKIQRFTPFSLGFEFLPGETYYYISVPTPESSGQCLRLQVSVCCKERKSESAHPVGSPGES
Description: as §1

[1] = test system: Breast-13 (BR13) TNBC PDX; assay: In vivo efficacy, BR13 TNBC PDX; design: species or system NOD/SCID mice (human tumor PDX)
[2] = test system: BR22 tumor-initiating cells; assay: Tumor-initiating cell (TIC) frequency by limit dilution analysis, BR22; format: in vivo, mice (human tumor PDX); conditions: for # Animals with tumors: 21 weeks post-injection
Description: The day of harvest serial transplantation was chosen based on when tumors were starting to regress following huE22-AcBut-CM exposure. Tumors were dissociated and stained with anti-human ESA, anti-mouse CD45, and anti-mouse H2Kd antibodies. Three tumors per treatment group were pooled, and live human tumor cells (ESA+) were sorted by flow cytometry.
Tumors in recipient mice were measured weekly and at 21 weeks post-injection, tumors that exceeded 200 mm^3 in recipient mice were scored as positive. Using Poisson distribution statistics, via L-Calc software (Stemcell Technologies, Vancouver, BC), injected cell doses of recipients with and without tumors at 21 weeks post-transplant were used to calculate the frequencies of TIC in each population.

[3] = In vitro stability in human plasma (ELISA total ADC); format: in vitro ADME; conditions: 37° C., mean (n=3), total ADC by ELISA
Description: Quantitation of the total ADC and total antibody, in plasma samples from pharmacokinetic studies in mice dosed with the ADC was determined using an enzyme-linked immunosorbent assay (ELISA) method. ELISA and liquid chromatography tandem mass spectrometry (LC-MS/MS) methods were also used to quantitate total ADC, total antibody and unconjugated payload from the exploratory toxicology studies in rat and monkey and in the in vitro plasma stability study with the ADC.
Total antibody concentrations could not be determined for the total ADC incubations in human plasma due to ELISA limitations of detection for a human IgG, in human plasma containing human IgG. […] NC=Not calculated; SD=Standard deviation.

B1: huE22 (antibody)
heavy: QVQLVQSGAEVKKPGASVKVSCKASGYTFTGYYIHWVRQAPGQGLEWMGWIYPGNFNTKYNERFKGRVTMTTDTSTSTAYMELRSLRSDDTAVYYCAREDGSPYYAMDYWGQGTSVTVSS[human IgG1 constant region omitted here]
VL: DIVMTQTPLSLSVTPGQPASISCRSSQSLVHSNGNTFLYWYLQKPGQSPQLLIYRVSNRFSGVPDRFSGSGSGTDFTLKISRVEAEDVGVYYCFQATHVPWTFGGGTKVEIK
With B1 the “binding to mouse antigen” value (mouse EFNA4) was “no binding to mouse antigen was detected”, the koff (human EFNA4) was 3.3E−03 s − 1 and the kon (human EFNA4) was 1.9E+06 M − 1s − 1.

B2: huE22-AcBut-CM: huE22 conjugated via lysine residues to AcBut-N-acetyl-γ-calicheamicin dimethyl hydrazide (AcBut-CM) (conjugate)
heavy: B1 heavy
light: DIVMTQTPLSLSVTPGQPASISCRSSQSLVHSNGNTFLYWYLQKPGQSPQLLIYRVSNRFSGVPDRFSGSGSGTDFTLKISRVEAEDVGVYYCFQATHVPWTFGGGTKVEIKRTVAAPSVFIFPPSDEQLKSGTASVVCLLNNFYPREAKVQWKVDNALQSGNSQESVTEQDSKDSTYSLSSTLTLSKADYEKHKVYACEVTHQGLSSPVTKSFNRGEC
In the case of B2, the “Regression (TTP, Days) or % TGI” value ([1]; 0.018 mg/kg, BR13) is reported as “No activity”, the tumor growth delay ([1]; 0.09 mg/kg) is reported as ~40 days and the “tumor volume ± SEM” value ([1]; 0.09 mg/kg, Day 22) is reported as 112 ± 20 mm^3. For the same molecule, the “tumor volume ± SEM” value ([1]; 0.09 mg/kg, Day 36) was 116 ± 32 mm^3, the “Regression (TTP, Days)” value ([1]; 0.09 mg/kg, BR13) was “Regression (42) Days” and the “tumor volume ± SEM” value ([1]; 0.09 mg/kg, Day 0) was 156 ± 10 mm^3. For the same molecule, the “tumor volume ± SEM” value ([1]; 0.09 mg/kg, Day 7) was 145 ± 14 mm^3, the “tumor volume ± SEM” value ([1]; 0.09 mg/kg, Day 14) was 156 ± 21 mm^3 and the “tumor volume ± SEM” value ([1]; 0.09 mg/kg, Day 28) was 98 ± 23 mm^3. For the same molecule, the “tumor volume ± SEM” value ([1]; 0.09 mg/kg, Day 42) was 138 ± 34 mm^3, the “tumor volume ± SEM” value ([1]; 0.09 mg/kg, Day 49) was 188 ± 46 mm^3 and the “tumor volume ± SEM” value ([1]; 0.09 mg/kg, Day 56) was 274 ± 75 mm^3. The “tumor volume ± SEM” value ([1]; 0.09 mg/kg, Day 63) was 328 ± 86 mm^3, the “tumor volume ± SEM” value ([1]; 0.09 mg/kg, Day 70) was 425 ± 93 mm^3 and the “tumor volume ± SEM” value ([1]; 0.09 mg/kg, Day 77) was 531 ± 116 mm^3. For the same molecule, the “tumor volume ± SEM” value ([1]; 0.09 mg/kg, Day 84) was 667 ± 133 mm^3, the “tumor volume ± SEM” value ([1]; 0.09 mg/kg, Day 91) was 830 ± 146 mm^3 and the “tumor volume ± SEM” value ([1]; 0.27 mg/kg, Day 22) was 35 ± 5 mm^3. For the same molecule, the “tumor volume ± SEM” value ([1]; 0.27 mg/kg, Day 144) was 573 ± 144 mm^3, the “tumor volume ± SEM” value ([1]; 0.27 mg/kg, Day 150) was 709 ± 248 mm^3 and the “Regression (TTP, Days)” value ([1]; 0.27 mg/kg, BR13) was “Regression (84) Days”. For the same molecule, the “tumor volume ± SEM” value ([1]; 0.27 mg/kg, Day 0) was 155 ± 14 mm^3, the “tumor volume ± SEM” value ([1]; 0.27 mg/kg, Day 7) was 144 ± 15 mm^3 and the “tumor volume ± SEM” value ([1]; 0.27 mg/kg, Day 14) was 91 ± 14 mm^3. For the same molecule, the “tumor volume ± SEM” value ([1]; 0.27 mg/kg, Day 28) was 17 ± 4 mm^3, the “tumor volume ± SEM” value ([1]; 0.27 mg/kg, Day 56) was 6 ± 2 mm^3 and the “tumor volume ± SEM” value ([1]; 0.27 mg/kg, Day 63) was 7 ± 3 mm^3. The “tumor volume ± SEM” value ([1]; 0.27 mg/kg, Day 70) was 13 ± 4 mm^3, the “tumor volume ± SEM” value ([1]; 0.27 mg/kg, Day 77) was 13 ± 7 mm^3 and the “tumor volume ± SEM” value ([1]; 0.27 mg/kg, Day 84) was 30 ± 13 mm^3. For the same molecule, the “tumor volume ± SEM” value ([1]; 0.27 mg/kg, Day 91) was 40 ± 15 mm^3, the “tumor volume ± SEM” value ([1]; 0.27 mg/kg, Day 98) was 79 ± 33 mm^3 and the “tumor volume ± SEM” value ([1]; 0.27 mg/kg, Day 105) was 99 ± 36 mm^3. For the same molecule, the “tumor volume ± SEM” value ([1]; 0.27 mg/kg, Day 112) was 147 ± 53 mm^3, the “tumor volume ± SEM” value ([1]; 0.27 mg/kg, Day 119) was 198 ± 65 mm^3 and the “tumor volume ± SEM” value ([1]; 0.27 mg/kg, Day 126) was 290 ± 97 mm^3. The “tumor volume ± SEM” value ([1]; 0.27 mg/kg, Day 133) was 332 ± 113 mm^3, the “tumor volume ± SEM” value ([1]; 0.27 mg/kg, Day 140) was 522 ± 156 mm^3 and the “# Animals with tumors” value ([2]; 18 cells implanted per animal, 7 animals in group) was 0. For the same molecule, the “# Animals with tumors” value ([2]; 90 cells implanted per animal, 8 animals in group) was 6, the “# Animals with tumors” value ([2]; 390 cells implanted per animal, 8 animals in group) was 7 and the “reduction of number of TIC vs control-AcBut-CM treated” value ([2]; p=0.019) was “about 3 fold”. For the same molecule, the “TIC frequency (1 TIC in x cells)” value ([2]; tumors harvested day 12 post-initial treatment, scored 21 weeks post-injection) was 147 cells, the “% huE22-AcBut-CM remaining” value ([3]; 1 ug/mL, 0 hours) was 100% and the “% huE22-AcBut-CM remaining” value ([3]; 50 ug/mL, 0 hours) was 100%. For the same molecule, the “% huE22-AcBut-CM remaining” value ([3]; 50 ug/mL, 168 hours) was 82.9%.
